Results published in PubChem BioAssay AID1458 (National Center for Advancing Translational Sciences (NCATS), 2008).
In all, about 210,000 compounds went through this assay and about 5,900 (2.8%) were called active. This list was built around the results that the source calls inconclusive (neither active nor inactive); the mix of calls is not that of the screen. Calls come from the whole dose curve; as a rule, active = well fitted activation curve with a large enough effect; inconclusive = small, poorly fitted or top-dose-only effect; inactive = no such curve, though single readings can be large or run the other way. Where the call is inconclusive, the potency comes from a doubtful curve fit.

Assay: qHTS Assay for Enhancers of SMN2 Splice Variant Expression; note: nearly all actives have a fitted effect of over 55% in size; for activity change, positive = activation: % of control where 0% means no effect
Conditions: HEK293 SMN2-luciferase splicing reporter, luminescence, 30-36 h; activity change, positive = activation: at 46.1 µM (top of the series)
Excerpt: NIH Chemical Genomics Center [NCGC] NIH Molecular Libraries Probe Production centers Network [MLPCN] MLPCN Grant: R03 MH084179-01 Assay Submitter (PI): Elliot Androphy NCGC Assay Overview: Spinal muscular atrophy (SMA) is caused by insufficient levels of the survival motor neuron protein SMN. The SMN locus on chromosome 5q13 contains two inverted copies of SMN called SMN1 and SMN2 which are 99% identical at the amino acid level. SMN1 is a fully functional protein and SMN2 skips exon 7 90% of the time. Skipping of exon 7 produces non-functional protein product. 10% of the SMN2 protein includes exon 7 and is fully functional. In the SMA disease state, mutations in the SMN1 locus are the cause of the disease state. Because only 10% of SMN2 is of the fully functional form, it is not sufficient to overcome the deficiency produced by the loss of the SMN1 product. A therapy that either increase the amount of SMN2 product made or to increase the inclusion of exon 7 has been proposed for the treatment of SMA. We have designed an assay to identify small molecules that can increase the amount of functional SMN2 product by appending a luciferase reporter gene after the native SMN2 gene, such that inclusion of exon 7 in the expressed product places the luciferase sequence in frame, thus generating functional luciferase enzyme.
NCGC Assay Protocol Summary: This screen utilizes a luciferase reporter gene assay, combining the promoter and splicing based cassettes in tandem with the major portion of the native SMN2 cDNA, and then transfected into HEK293 cells. Compounds that increase luciferase signal presumably enhance expression of the functional SMN2 splice variant. Passaging media contained DMEM w/ glutamax (+phenol red) 10% FCS, 1x pen/strep, 200 ug/ml hygro, 1x sodium pyruvate. Assay media contained DMEM w/ glutamax (-phenol red) 10% FCS, 1x pen strep, 1x pyruvate Sequence, Parameter, Value, Description (1) Cells, […], 2000 cells/well, 1536 TC treated White solid bottom plate (2) Time, 10-12 hours, 37C 5% CO2 (3) Compound, 23 nl, MLSMR Library (4) Control Compound, 23 nL, Sodium butyrate st 4.5mM (final) conc (5) Time, 30-36 hours, 37C 5% CO2 (6) Reagent, 3 ul, One Glo (TM) from Promega (7) Time, 5-15 minutes, Room temp (8) Detector, Viewlux: luminescent read, 60 second integration, high speed 2x binning Keywords: Spinal muscular atrophy, SMA, SMN2, high throughput screening, MLSMR, MLPCN, NIH Roadmap, qHTS and NCGC
Potency is the fitted concentration of half-maximal effect; tags give direction and shape of the fitted curve.

Row | SMILES | Potency | activity change, positive = activation
1 | CCc1ccc2oc(C(=O)Nc3nc(-c4ccccc4)ns3)c(C)c2c1 | inconclusive: 17.8 µM [activator, partial curve, poor fit] | –
2 | Clc1ccccc1-c1nnn(Cc2ccc(-c3nn[nH]n3)cc2)n1 | inconclusive: 22.4 µM [activator, partial curve, poor fit] | –
3 | O=C(CSc1ccccn1)Nc1ccc(Br)cn1 | – | inactive: 2.78%
4 | CCOC(=O)CCCCC(=O)c1[nH]c(=O)[nH]c1CSc1nc(C)cc(=O)[nH]1 | inconclusive: 1.78 µM [activator, partial curve, poor fit] | –
5 | COc1cc(C=O)c(Br)cc1OCc1ccc(C)cc1 | inconclusive: 35.5 µM [activator, single point] | –
6 | Cc1occc1C(=O)NNC(=S)Nc1ccccc1 | inconclusive: 17.8 µM [activator, partial curve] | –
7 | CC(C)n1c(SCc2cc(=O)[nH]c3ccccc23)nc2c1c(=O)n(C)c(=O)n2C | inconclusive: 2.82 µM [activator, partial curve, poor fit] | –
8 | CCN1C(=O)CC(N2CCC(Cc3ccccc3)CC2)C1=O (stereo not drawn) | – | inactive: -1.64%
9 | COc1ccc(-c2csc(-c3cccs3)n2)c(OC)c1 | active: 11.2 µM | –
10 | COC(=O)c1cc(=O)n(CCc2ccc(OC)c(OC)c2)c(=Nc2ccc(F)c(Cl)c2)s1 | – | inactive: -24.7%
11 | O=C(N/N=C/c1ccc(OCC(=O)N2CCCCC2)cc1)c1ccccc1 | inconclusive: 0.0032 µM [activator, full curve, poor fit] | –
12 | O=C(CSc1nc2c(cnn2-c2ccc(F)cc2)c(=O)[nH]1)N1CCCCC1 | inconclusive: 14.1 µM [activator, single point] | –
13 | CC(=O)c1ccc(N2CCN(C(=O)Cn3ncc4c3-c3ccccc3OC4)CC2)cc1 | – | inactive: -17.8%
14 | C=CCN=Cc1c(C)[nH]n(-c2ccccc2)c1=O | inconclusive: 35.5 µM [activator, single point] | –
15 | COC(=O)Cc1c(OC)ccn(CCc2c[nH]c3ccccc23)c1=O | active: 11.2 µM | –
16 | COc1ccc(-c2cc(=O)c3cc(F)ccc3[nH]2)cc1 | – | inactive: -3.04%
17 | O=C(N/N=C/c1cccs1)c1cc(-c2cccc3ccccc23)n[nH]1 | inconclusive: 7.94 µM [activator, partial curve, poor fit] | –
18 | Cc1ccc(-c2nsc(NC(=O)c3oc4cc(C)c(Cl)cc4c3C)n2)cc1 | – | inactive: 1.34%
19 | CN1/C(=C/C2CC(=O)NC2=O)C(C)(C)c2ccccc21 (stereo not drawn) | inconclusive: 0.02 µM [activator, full curve, poor fit] | –
20 | CCOC(=O)c1nn(-c2ccc3c(c2)OCO3)cc1O | inconclusive: 35.5 µM [activator, single point] | –
21 | CNC(=O)c1[nH]cnc1C(=O)Nc1ccc(C)cc1 | inconclusive: 11.2 µM [activator, single point] | –
22 | O=C(Nc1ccc(S(=O)(=O)N2CCC(C(=O)NC3CCCCC3)CC2)cc1)c1ccco1 | inconclusive: 3.55 µM [activator, partial curve, poor fit] | –
23 | Cc1ccc(-n2c(=O)c3cccnc3n2CC(=O)NCc2ccc(F)cc2)cc1C | – | inactive: -1.87%
24 | O=C1C2=C(Nc3cc([N+](=O)[O-])ccc3N2)O[C@@H]1c1c[nH]c2ccc(COc3ccccc3)cc12 | – | inactive: -4.4% [at 9.22 µM]
25 | Cc1ccc(C(=O)C(C)Sc2nnc(N)s2)cc1 (stereo not drawn) | inconclusive: 11.2 µM [activator, single point] | –

Row | SMILES | Potency | activity change, positive = activation
26 | O=C(Cn1c(SCC(=O)N2CCc3ccccc3C2)nc2ccccc21)NC1CCCC1 | active: 11.2 µM | –
27 | Cc1ccc(S(=O)(=O)NC(=O)Nc2ncc3c(n2)CC(c2ccco2)CC3=O)cc1 (stereo not drawn) | – | inactive: 10.5%
28 | CCc1ccc(C(=O)/C=C/c2cnn(C)c2C)s1 | active: 12.6 µM | –
29 | O=c1[nH]c2ccc(NCc3ccccc3F)cc2[nH]1 | – | inactive: -19.2%
30 | O=C(Cc1ccccc1)NCc1n[nH]c(=S)n1-c1ccc(Br)cc1 | inconclusive: 28.2 µM [activator, single point] | –
31 | Cc1cc(N(C)Cc2ccccc2)nc(-c2ccccc2)n1 | inconclusive: 12.6 µM [activator, partial curve] | –
32 | Cc1ccc(-c2cc(C)nc3nc(N)nn23)cc1 | inconclusive: 35.5 µM [activator, single point] | –
33 | COc1ccc(OC)c(NC(=O)c2sc3nc4c(cc3c2N)CCCCCC4)c1 | – | inactive: -6.84%
34 | Cc1ccc(S(=O)(=O)N2CCOCC2)cc1NC(=O)COC(=O)CNC(=O)c1ccc(C(C)(C)C)cc1 | inconclusive: 0.112 µM [activator, full curve, poor fit] | –
35 | Cn1/c(=N/NC(=O)c2ccccc2F)sc2ccccc21 | inconclusive: 15.8 µM [activator, partial curve, poor fit] | –
36 | O=C(NC(Cc1ccccc1)C(=O)O)c1ccc(S(=O)(=O)N2CCOCC2)cc1 (stereo not drawn) | inconclusive: 3.55 µM [activator, single point] | –
37 | CCCCC(=O)Nc1ccccc1C(=O)OCC(=O)c1ccc2c(c1)OCCO2 | – | inactive: -8.92%
38 | CCOC(=O)c1cnc2ccccc2c1Nc1ccc(N2CCOCC2)cc1 | – | inactive: -7.75%
39 | CC(=O)Nc1cccc(/C(C)=N/Nc2nc3ccccc3s2)c1 | active: 11.2 µM | –
40 | Cc1cccc(NC(=O)N2CCN(Cc3ccccc3)CC2)c1 | – | inactive: 18.3%
41 | Cc1ccc(NC(=O)Nc2ccc(F)cc2)cc1Cl | inconclusive: 12.6 µM [activator, partial curve] | –
42 | COc1cc2c(cc1OC)-c1cc(NC3CC3)nc(=O)n1CC2 | active: 14.1 µM | –
43 | Cc1c(C(=O)Oc2cc(N)n(S(C)(=O)=O)n2)cccc1[N+](=O)[O-] | – | inactive: 0.469%
44 | COC(=O)Nc1ccc(OCc2ccccc2)cc1 | active: 12.6 µM | –
45 | COc1ccc(-c2ccc(SCC(=O)c3ccc(F)cc3)nn2)cc1OC | – | inactive: -17.5%
46 | CCCN=C(Nc1ccc(Cl)cc1)c1cccnc1 | inconclusive: 0.158 µM [activator, full curve, poor fit] | –
47 | CCn1nc(C(=O)Nc2ccccc2C)c(Cl)c1Cl | inconclusive: 0.141 µM [activator, partial curve, poor fit] | –
48 | CCOC(=O)c1sc(NC(=O)C2CCCO2)c(C(=O)OCC)c1C (stereo not drawn) | inconclusive: 0.0032 µM [activator, full curve, poor fit] | –
49 | COc1ccc(-c2cc3nc(C)c(CCC(=O)N4CCN(c5cc(C)ccc5C)CC4)c(C)n3n2)c(OC)c1 | – | inactive: 6.67%
50 | O=C(COc1cccc2ccccc12)NNC(=O)Nc1ccccc1 | inconclusive: 3.98 µM [activator, partial curve] | –

Row | SMILES | Potency | activity change, positive = activation
51 | CCc1c(C#N)c(SCCC(=O)Nc2cccc(OC)c2)nc2c1C(=O)CC(C)(C)C2 | inconclusive: 7.94 µM [activator, partial curve, poor fit] | –
52 | CC(=O)NCCC(=O)Nc1nc(-c2cccs2)c(-c2cccs2)s1 | inconclusive: 0.891 µM [activator, partial curve, poor fit] | –
53 | COc1cc2c(cc1NC(=S)Nc1cccc(C)c1)oc1ccccc12 | inconclusive: 0.0022 µM [activator, full curve, poor fit] | –
54 | COc1cccc2sc(Nc3nc(C)c(C(C)=O)s3)nc12 | active: 7.94 µM | –
55 | O=C(NCc1ccccc1Cl)c1ccc(-c2ccccc2)cc1 | inconclusive: 12.6 µM [activator, partial curve] | –
56 | CCOC(=O)c1cccc(NC(=O)c2ccc3snnc3c2)c1 | inconclusive: 11.2 µM [activator, partial curve] | –
57 | Cc1cc(C(=O)NC2CCCCC2)c(C)n1-c1ccc(F)cc1 | inconclusive: 35.5 µM [activator, single point] | –
58 | CCn1c(NCc2ccc(N(C)C)cc2)nc2ccccc21 | – | inactive: 27.4%
59 | O=C(N/N=C1\C2CN3CCN(C2)CC1(c1ccccc1)C3)c1ccc(F)cc1 | inconclusive: 1.41 µM [activator, partial curve, poor fit] | –
60 | N#CCc1nn(-c2ccc(Cl)cc2)c(N)c1C#N | inconclusive: 0.891 µM [activator, partial curve] | –
61 | CCOC(=O)C(C)Sc1nc2c(c(=O)[nH]c(=O)n2C)n1C/C=C(/C)Cl (stereo not drawn) | inconclusive: 35.5 µM [activator, single point] | –
62 | CCCCOc1ccc(C(=O)Nc2onc3c2CCCC3)cc1 | active: 22.4 µM | –
63 | Cc1ccoc1C(=O)Nc1ccc(CC(=O)O)cc1 | inconclusive: 0.501 µM [activator, full curve, poor fit] | –
64 | O=C(/C=C/c1ccccc1)c1ccc2c(c1)OCCCCO2 | inconclusive: 17.8 µM [activator, single point] | –
65 | CCCCN(C)C(=O)c1cc2cc3ccc(OC)cc3nc2s1 | active: 6.31 µM | –
66 | COc1cc2ccc(=O)oc2c(O)c1O | inconclusive: 14.1 µM [activator, single point] | –
67 | O=C(Oc1cccc2c(O)cccc12)c1ccccc1 | inconclusive: 4.47 µM [activator, partial curve, poor fit] | –
68 | CCc1ccc2nc(N)sc2c1 | active: 20 µM | –
69 | CC1CCN(c2nc3c(c(=O)n(C)c(=O)n3C)n2CCSc2nc3ccccc3s2)CC1 | – | inactive: -20.8%
70 | c1ccc(OCCCc2nc(-c3cccnc3)no2)cc1 | inconclusive: 0.178 µM [activator, full curve, poor fit] | –
71 | COC(=O)c1nnn(Cc2ccccc2)c1N | inconclusive: 0.02 µM [activator, full curve, poor fit] | –
72 | COC(=O)c1ccc(NC(=O)c2cccc3c2C(=O)N(C2CCCCC2)C3)cc1 | – | inactive: -3.88%
73 | CN(C1CCCCC1)S(=O)(=O)c1ccc2c(c1)c(=O)c(C(=O)NCCN1CCCC1)cn2C | inconclusive: 5.62 µM [activator, single point] | –
